Results on 15 compounds are retold here after the supplement of paper PMC4604168 (melanoma cell lines).

The other results are listed elsewhere or left out. Single values are uncertain, as repeats are few or missing.
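Further: cells treated in 1,536-well plates, then fixed and DAPI-stained, with nuclei counted from automated high-throughput microscope images.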

The assay relates to A2058. In words: cell count relative to DMSO control; melanoma cells; higher = more viable cells. To be noted: library dose: standard library concentration; 72 h.
Regarding `COc1cc(Nc2ncc(F)c(Nc3ccc4c(n3)NC(=O)C(C)(C)O4)n2)cc(OC)c1OC` [Tamatinib] + CC1(C)NC(=O)N(c2ccc([N+](=O)[O-])c(C(F)(F)F)c2)C1=O [nilutamide] (first compound 2 µM, partner dose 5 µM), the cell count amounted to 74.1%. The value for `O=c1[nH]nc(Sc2ncc([N+](=O)[O-])s2)n1-c1ccc2c(c1)OCCO2` + NC1(c2ccc(-c3nc4ccn5c(=O)[nH]nc5c4cc3-c3ccccc3)cc2)CCC1 [MK2206] (first compound 1 µM, partner dose 2 µM) was 72.5%.

Compound `O=c1[nH]nc(Sc2ncc([N+](=O)[O-])s2)n1-c1ccc2c(c1)OCCO2` + CCN(CC)CCNC(=O)c1c(C)[nH]c(/C=C2\C(=O)Nc3ccc(F)cc32)c1C [sunitinib] (first compound 1 µM, partner dose 2 µM) yielded a cell count of 72.3%. `O=c1[nH]nc(Sc2ncc([N+](=O)[O-])s2)n1-c1ccc2c(c1)OCCO2` + Cn1c(=O)n(-c2ccc(C(C)(C)C#N)cc2)c2c3cc(-c4cnc5ccccc5c4)ccc3ncc21 [NVP-BEZ235] (first compound 1 µM, partner dose 0.02 µM) showed a cell count of 70.6%.

The compound `C[C@@H]1CCN(C(=O)CC#N)C[C@@H]1N(C)c1ncnc2[nH]ccc12` + COc1cc2c(Oc3ccc4[nH]c(C)cc4c3F)ncnc2cc1OCCCN1CCCC1 [cediranib] (first compound 5 µM, partner dose 2 µM) came in with a cell count of 104%.

Consider `O=c1[nH]nc(Sc2ncc([N+](=O)[O-])s2)n1-c1ccc2c(c1)OCCO2` + COCC[n+]1c2c(n(Cc3cnccn3)c1C)C(=O)c1ccccc1C2=O [YM155] (first compound 1 µM, partner dose 0.002 µM), for which the cell count worked out at 19.5%. Next, `O=c1[nH]nc(Sc2ncc([N+](=O)[O-])s2)n1-c1ccc2c(c1)OCCO2` + CC(C)(C)c1cnc(CSc2cnc(NC(=O)C3CCNCC3)s2)o1 [SNS-032] (first compound 1 µM, partner dose 0.05 µM): 79.8%; `O=c1[nH]nc(Sc2ncc([N+](=O)[O-])s2)n1-c1ccc2c(c1)OCCO2` + O=C(O)c1ccc(-c2c[nH]c3ncc(-c4ccccc4)cc23)cc1C1CCCC1 [GSK650394] (first compound 1 µM, partner dose 0.8 µM): 87.3%; `O=c1[nH]nc(Sc2ncc([N+](=O)[O-])s2)n1-c1ccc2c(c1)OCCO2` + C#Cc1cccc(Nc2ncnc3cc(OCCOC)c(OCCOC)cc23)c1 [erlotinib] (first compound 1 µM, partner dose 4 µM): 81.2%. Next, `CC1(C)NC(=O)N(c2ccc([N+](=O)[O-])c(C(F)(F)F)c2)C1=O` [nilutamide] + C[C@@H]1CCN(C(=O)CC#N)C[C@@H]1N(C)c1ncnc2[nH]ccc12 [CP690550] (first compound 5 µM, partner dose 5 µM): 92.5%; `O=c1[nH]nc(Sc2ncc([N+](=O)[O-])s2)n1-c1ccc2c(c1)OCCO2` + CC(=O)c1c(C)c2cnc(Nc3ccc(N4CCNCC4)cn3)nc2n(C2CCCC2)c1=O [palbociclib] (first compound 1 µM, partner dose 0.2 µM): 83.9%; `O=C(Nc1cccc(Cl)c1)Nc1ncc(CCNc2ncnc3ccsc23)s1` + CN(C)S(=O)(=O)c1ccc2c(c1)/C(=C/c1cc3c([nH]1)CCCC3)C(=O)N2 [SU6656] (first compound 0.004 µM, partner dose 2 µM): 43.4%. `O=C(Nc1cccc(Cl)c1)Nc1ncc(CCNc2ncnc3ccsc23)s1` + NCC(=O)Nc1ccc(-n2nc(C(F)(F)F)cc2-c2ccc3c(ccc4ccccc43)c2)cc1 [OSU03012] (first compound 0.004 µM, partner dose 5 µM) yielded a cell count of 85.6%. The value for `O=c1[nH]nc(Sc2ncc([N+](=O)[O-])s2)n1-c1ccc2c(c1)OCCO2` + C=C(c1ccc(C(=O)O)cc1)c1cc2c(cc1C)C(C)(C)CCC2(C)C [Bexarotene] (first compound 1 µM, partner dose 10 µM) was 102%; that for `O=c1[nH]nc(Sc2ncc([N+](=O)[O-])s2)n1-c1ccc2c(c1)OCCO2` + O=C(CCCCCCC(=O)Nc1ccccc1)NO [vorinostat] (first compound 1 µM, partner dose 0.4 µM) was 91.9%.
